# Read-outs that look alike come from different tables or passages of the source.
# Tests used:
# [1] = tested on: Amaranthus tamariscinus (common waterhemp, AMATA), PPO resistant biotype 8 (w.12); experiment: Greenhouse herbicidal activity test, third experiment, weed w.12; type: in vivo; conditions: use rate 2 g/ha; PPO resistant biotype 8 common waterhemp; scale 0 to 100
# [2] = tested on: Amaranthus tamariscinus (common waterhemp, AMATA), PPO resistant biotype 7 (w.11); experiment: Greenhouse herbicidal activity test, third experiment, weed w.11; type: in vivo; conditions: use rate 2 g/ha; PPO resistant biotype 7 common waterhemp; scale 0 to 100
# [3] = tested on: Ambrosia elatior (common ragweed, AMBEL), PPO resistant biotype 4 that contains the R98L mutation (w.6); conditions: scale 0 to 100
# [4] = tested on: Ambrosia elatior (common ragweed, AMBEL), PPO resistant biotype 3 that contains the R98L mutation (w.5); conditions: scale 0 to 100
# [5] = tested on: Amaranthus tamariscinus (common waterhemp, AMATA), PPO resistant biotype 2 (w.3); type: in vivo; conditions: PPO resistant biotype 2 common waterhemp, scale 0 to 100
# [6] = tested on: Amaranthus tamariscinus (common waterhemp, AMATA), PPO resistant biotype 1 (w.2); type: in vivo; conditions: PPO resistant biotype 1 common waterhemp, scale 0 to 100
smiles,measurement,setting,value
"C#CCOc1cc(-n2nc3n(c2=O)CCCC3)c(Cl)cc1Cl [azafenidin, reference compound]",Weed control (%) w.12,[1],70%
same,Weed control (%) w.11,[2],67%
"CCOC(=O)COc1ncccc1Oc1cc(-n2c(=O)cc(C(F)(F)F)n(C)c2=O)c(F)cc1Cl [compound (I).1, ethyl [3-[2-chloro-4-fluoro-5-(1-methyl-6-trifluoromethyl-2,4-dioxo-1,2,3,4-tetrahydropyrimidin-3-yl)phenoxy]-2-pyridyloxy]acetate]",Weed control (%) w.6,"[3]; use rate 1 g/ha, […]",100%
same,Weed control (%) w.6,"[3]; use rate 2 g/ha, […]",100%
same,Weed control (%) w.5,"[4]; use rate 1 g/ha, […]",100%
same,Weed control (%) w.5,"[4]; use rate 2 g/ha, […]",100%
CCOC(=O)COc1ccccc1Oc1cc(-n2c(=O)cc(C(F)(F)F)n(C)c2=O)c(F)cc1Cl [compound (I).4],Weed control (%) w.12,[1],100%
same,Weed control (%) w.11,[2],89%
"C#CCN1C(=O)COc2cc(F)c(N3C(=O)C4=C(CCCC4)C3=O)cc21 [flumioxazin, reference compound]",Weed control (%) w.3,[5]; use rate 1 g/ha,0%
same,Weed control (%) w.3,[5]; use rate 2 g/ha,70%
same,Weed control (%) w.2,[6]; use rate 1 g/ha,30%
same,Weed control (%) w.2,[6]; use rate 2 g/ha,30%
same,Weed control (%) w.6,"[3]; use rate 1 g/ha, PPO resistant biotype 4 (R98L) common ragweed",0%
same,Weed control (%) w.6,"[3]; use rate 2 g/ha, PPO resistant biotype 4 (R98L) common ragweed",20%
same,Weed control (%) w.5,"[4]; use rate 1 g/ha, PPO resistant biotype 3 (R98L) common ragweed",0%
same,Weed control (%) w.5,"[4]; use rate 2 g/ha, PPO resistant biotype 3 (R98L) common ragweed",10%

# Source: US20190069553A1, “METHOD FOR CONTROLLING PPO RESISTANT WEEDS” (BASF SE, priority 2016, published 2019)
